In PubChem BioAssay AID1345083 (National Center for Advancing Translational Sciences (NCATS), 2018):
The campaign covered roughly 94,000 compounds. About 6,200 (6.6%) were called active. Inconclusive means that the source gave no clear call. Such entries were picked first, then a sample of the others. The call rests on the fitted dose curve; in most records, active means well fitted inhibition curve with a large enough effect; inconclusive means small, poorly fitted or top-dose-only effect; inactive means flat fitted curve, though single readings scatter. Where the call is inconclusive, the potency comes from a doubtful curve fit.

Test: Cytotoxic Profiling in HEK 293 Cell Line of Diverse Libraries Using Quantitative High-Throughput Screening; further: nearly all actives have a fitted effect of over 60% in size
Conditions: HEK 293 viability, ATP luminescence (CellTiter-Glo), 48-72 h; series mostly up to 115 µM
In short: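 250 HEK 293 cells/well; compound by pintool; incubated 48 or 72 hr at 37 degree Celsius; CellTiter-Glo added, 10 min RT, luminescence imaged.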
Potency means the concentration at half of the fitted maximal effect; tags describe the fitted curve by direction and shape.

Row | Compound | Potency
1 | CC(=O)N1Cc2ccccc2OC2(CCN(C(=O)c3cccc4[nH]ccc34)CC2)C1 | inactive
2 | COc1ccccc1CNC(=O)C1CCN(c2cc(C(F)(F)F)nc(C)n2)CC1 | inconclusive: 89.1 µM [inhibitor, partial curve, poor fit]
3 | Cc1ccc(-c2c(C(=O)NCc3cccs3)nc3sccn23)cc1 | inconclusive: 126 µM [inhibitor, single point]
4 | CCOC(=O)c1ccccc1NC(=O)Cn1ccn2nc3c(c2c1=O)CCCCC3 | inconclusive: 44.7 µM [inhibitor, partial curve, poor fit]
5 | O=C(c1cc(C2CC2)[nH]n1)N1CCC2(CC1)NC(=O)N(c1cccc(F)c1)N2 | inconclusive: 31.6 µM [inhibitor, full curve, poor fit]
6 | CCCn1c(C)cnc1CC1CCN(C(=O)c2ccccc2F)CC1 | inactive
7 | COc1ccccc1Nc1ccnc(N2CCN(C(=O)C(C)(C)C)CC2)n1 | inconclusive: 50.1 µM [inhibitor, partial curve, poor fit]
8 | CCc1cccc(NC(=O)Cn2c(=O)c(-c3noc(C)n3)c3n(c2=O)CCCCC3)c1 | inactive
9 | O=C(c1ccc(C(F)(F)F)cc1)N1CCCC(C(=O)N2CCCC(c3nc4ccncc4[nH]3)C2)C1 (configuration not stated) | inconclusive: 35.5 µM [inhibitor, full curve]
10 | O=C(NCC1CC1)c1cccc(OC2CN(Cc3cccc(F)c3)C2)c1 | inconclusive: 50.1 µM [inhibitor, partial curve, poor fit]
11 | Cc1cc(C)c(CNC(=O)c2nc(-c3ccccc3)cc3c2ccn3C(C)C)c(=O)[nH]1 | inconclusive: 79.4 µM [inhibitor, partial curve, poor fit]
12 | O=C1CCCN1CCc1nc(C2CCOC2)nn1-c1cccnc1 (configuration not stated) | inactive
13 | CC1(CCCCc2ccccc2)COc2ccc(C(=O)N3CC(O)C3)cc2N1 (configuration not stated) | inconclusive: 79.4 µM [inhibitor, partial curve, poor fit]
14 | O=C(O)C1CCc2nnc(C3CCN(C(=O)c4ccc(F)cc4)CC3)n21 (configuration not stated) | inactive
15 | COCCCNC(=O)N1CCC2(CC1)CC(N(Cc1ccc(F)cc1)C1CC1)CCO2 (configuration not stated) | inactive
16 | COc1ccc(NC(=O)c2ccc3c(c2)OCCN(Cc2ncccn2)C3)cc1F | inconclusive: 100 µM [inhibitor, partial curve]
17 | Cc1nn(Cc2ccccc2)c(C)c1[C@@H]1C=C[C@@H](NC(=O)c2ccco2)C1 | active: 70.8 µM
18 | O=C(NCc1cccs1)c1nc(-c2cc(Cl)cc(Cl)c2)c2ccccn12 | inactive
19 | O=C(c1ccco1)N1CCCN(c2cc(-c3ccc(Br)cc3)[nH]n2)CC1 | inconclusive: 44.7 µM [inhibitor, partial curve, poor fit]
20 | COc1ccc(NC(=O)N2Cc3[nH]cnc3C[C@H]2c2nc(-c3ccc(Cl)cc3)no2)cc1 | inconclusive: 50.1 µM [inhibitor, partial curve, poor fit]
21 | O=C(C1CCCN1[S+](=O)([O-])c1cccs1)N1CCC(N2CCCC2=O)CC1 (configuration not stated) | inactive
22 | CCc1nc2c(c(-c3ccc(O)cc3)n1)CCN(C(=O)NC1CCCC1)CC2 | inconclusive: 89.1 µM [inhibitor, single point]
23 | COc1ccc(F)cc1-c1ccc(CN2CCCCC2C(=O)N2CCCN(C(C)=O)CC2)cc1 (configuration not stated) | active: 44.7 µM

Row | Compound | Potency
24 | COc1ccc(-c2n[nH]c3c2CC(=O)N(c2ccccc2)C3)cn1 | inconclusive: 17.8 µM [inhibitor, full curve]
25 | Cc1cnc(C)n1CC1CCN(S(=O)(=O)c2cccc(F)c2)CC1 | inactive
26 | Cc1nc(CN2C[C@H](C(=O)Nc3ccc(F)cc3)C[C@@H]2c2ccc(F)cc2)cs1 | active: 100 µM
27 | CC#CCn1cc2c3c(cccc31)[C@H](CC(C)C)N[C@H](C(=O)NC(C)C)C2 | active: 50.1 µM
28 | OC(c1cc2n(n1)CCN(c1ncc(C(F)(F)F)cc1Cl)C2)C1CC1 (configuration not stated) | inconclusive: 89.1 µM [inhibitor, single point]
29 | O=C(c1ccc(F)cc1)N1CCC(C(=O)N2CCC(c3nc4ccncc4[nH]3)C2)CC1 (configuration not stated) | inactive
30 | COc1ccccc1-c1ccc2c(C(=O)N(C)C)nn(C)c2n1 | inactive
31 | Cc1oc(C(O)c2ccccc2F)nc1C(=O)Nc1ccc2[nH]ccc2c1 (configuration not stated) | active: 100 µM
32 | COc1ccc(CNC(=O)C2CCCCN2Cc2ccc(-c3ccccc3OC)cc2)cc1 (configuration not stated) | active: 31.6 µM
33 | COc1cccc(CC(=O)N2CC(CNc3ccccc3)C3(C2)CN(c2ccccc2)C3)c1 (configuration not stated) | inconclusive: 31.6 µM [inhibitor, full curve]
34 | COC(=O)CNC(=O)C1CCCN1C(=O)c1cccc(-c2cccc(OC)c2)c1 (configuration not stated) | active: 44.7 µM
35 | Cn1ncc2c(C(=O)NC3CCOCC3)cc(-c3ccc(F)cc3)nc21 | inconclusive: 89.1 µM [inhibitor, single point]
36 | C[C@H]1[C@@H]2[C@@H](O)C([C@H](C)C(=O)NC3CCCCC3)CC[C@@]2(C)CC[C@@H]1NC(=O)C1CCCCC1 (some centres not stated) | inactive
37 | CN(C)c1ccc(C(=O)NC[C@H]2O[C@@H](CO)[C@@H](O)[C@H]2N2CCN(c3ccccc3)CC2)cc1 | inactive
38 | Cc1cc(C(F)(F)F)nn1CCNC(=O)c1csc(-c2cccs2)n1 | inconclusive: 56.2 µM [inhibitor, partial curve, poor fit]
39 | COc1ccc(CC(=O)N(C)Cc2ccc(F)cc2)cc1 | inconclusive: 126 µM [inhibitor, single point]
40 | C[C@@H]1CN(C(=O)c2ccco2)C[C@H]1c1nc(-c2ccccc2)no1 | inconclusive: 89.1 µM [inhibitor, partial curve, poor fit]
41 | Cn1c2c(c3ccccc31)CN(C(=O)NC1CCCCC1)CC2 | active: 44.7 µM
42 | COc1ccc(OCC2(C)COc3ccc(C(=O)Nc4ccccc4)cc3N2)cc1 (configuration not stated) | inconclusive: 14.1 µM [inhibitor, full curve, poor fit]
43 | CN(Cc1ccc(-c2ccccc2)cc1)Cc1cccn1C | inconclusive: 126 µM [inhibitor, single point]
44 | COc1ccc(Cc2nc3nccc(-c4ccco4)n3n2)cc1 | inconclusive: 89.1 µM [inhibitor, single point]
45 | COc1ccc(-c2cc(N3CCN(C(=O)c4ccccc4C)CC3)n[nH]2)cc1 | inconclusive: 44.7 µM [inhibitor, partial curve, poor fit]
46 | C#CCNC(=O)c1cc(-c2ccccc2F)nc2c1cnn2C | inconclusive: 126 µM [inhibitor, single point]

Row | Compound | Potency
47 | Cc1ccc(C(=O)N(C)C2CCCc3ccccc32)cc1 (configuration not stated) | active: 79.4 µM
48 | O=S(=O)(NC[C@H]1COCc2nc3cccnc3n21)c1ccc(Cl)cc1 | inconclusive: 100 µM [inhibitor, partial curve, poor fit]
49 | O=C(NCC(F)F)c1nc2cccnc2n(C2CCCC2)c1=O | inconclusive: 112 µM [inhibitor, single point]
50 | COC(=O)C1=CN(CC(=O)Nc2ccc(C)cc2Cl)S(=O)(=O)N=C1C | inactive
51 | O=C1NCCCCCCN(Cc2ccncc2)[C@@H]2CN(C(=O)c3cccs3)CC[C@@H]12 | inactive
52 | COc1ccc(CN(C)C2CCCN(CCc3ccccc3)C2)c(OC)c1OC (configuration not stated) | inconclusive: 31.6 µM [inhibitor, partial curve, poor fit]
53 | Cc1cccc(-c2nc3ccc(C(=O)N4CCCCC4)cc3o2)n1 | inconclusive: 17.8 µM [inhibitor, partial curve, poor fit]
54 | CC(C)Cc1cc(C(=O)N2CCOCC2CC(=O)N2CC=CC2)nc(=O)[nH]1 (configuration not stated) | inactive
55 | CN(Cc1cccc(OCC(O)CN2CCOCC2)c1)Cc1ccc2nonc2c1 (configuration not stated) | inconclusive: 25.1 µM [inhibitor, full curve, poor fit]
56 | COc1cc2c(cc1-c1ccccc1)OCC(C)(C)CC2CO (configuration not stated) | inconclusive: 89.1 µM [inhibitor, partial curve, poor fit]
57 | O=C(c1ccc(F)cc1)N1CC[C@H](c2nc3ccc(F)cc3[nH]2)C1 | inactive
58 | COc1cccc(-c2cn3cc(C(=O)N4CCN(C(C)=O)CC4)nc3s2)c1 | inconclusive: 31.6 µM [inhibitor, full curve, poor fit]
59 | CCC1(O)CCC12CCN(C(=O)c1ccc(C)nc1)CC2 (configuration not stated) | inactive
60 | Cc1cc(F)ccc1-c1cccc(COc2cnc3c(ccn3CC(=O)O)c2)c1 | inconclusive: 126 µM [inhibitor, single point]
61 | O=C1NC2(CCCN([S+](=O)([O-])c3ccccc3)C2)COc2ccccc21 (configuration not stated) | inconclusive: 44.7 µM [inhibitor, partial curve, poor fit]
62 | COc1ccc(C2Cn3nnc(C(=O)N4CCN(C(=O)c5c(F)cccc5F)CC4)c3CO2)cc1 (configuration not stated) | inconclusive: 79.4 µM [inhibitor, partial curve, poor fit]
63 | COCCN1C(=O)CS(=O)(=O)C12CCN(C(=O)CCc1ccccc1OC)CC2 | inactive
64 | N#Cc1cccc(-c2c(C(=O)NCc3cccc(C(F)(F)F)c3)nc3sccn23)c1 | active: 35.5 µM
65 | Cc1nn(-c2ccccc2)c2c1C(C1CC1)N(CC1CN(C(=O)Cc3ccccc3)C1)C2=O (configuration not stated) | inconclusive: 89.1 µM [inhibitor, single point]
66 | C=CCOc1cccc(-c2nc(C(=O)N(C)CC)cs2)c1 | inconclusive: 50.1 µM [inhibitor, partial curve, poor fit]
67 | O=C1NC2(CN(C(=O)c3ccccc3F)C2)Oc2ccccc21 | inconclusive: 126 µM [inhibitor, single point]
